Some of the results follow. Sequences were assembled here from the parent chain. Values near 0.05 are background.
B1: TEV protease; numbered along this chain (parent)
chain: MGESLFKGPRDYNPISSSICHLTNESDGHTTSLYGIGFGPFIITNKHLFRRNNGTLVVQSLHGVFKVKDTTTLQQHLVDGRDMIIIRMPKDFPPFPQKLKFREPQREERICLVTTNFQTKSMSSMVSDTSCTFPSGDGIFWKHWIQTKDGQCGSPLVSTRDGFIVGIHSASNFTNTNNYFTSVPKNFMELLTNQEAQQWVSGWRLNADSVLWGGHKVFMVKPEEPFQPVKEATQL

Variants of: B1
Experiment: raw area under fraction-flipped curve 0-4 h after induction (AUC4h, not background-subtracted), DNA-recorder readout of cleavage of the substrate (dimensionless); higher = more cleavage of the substrate by the protease variant
Details: temperature: 34 °C; time window: 0-4 h after rhamnose induction
Experimental: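 In vivo DNA recorder in E. coli TOP10(DE3) ΔrhaA at 34 °C. Each TEVp single-site mutant (parent TEVp 0) is paired with a single-site variant of the 7-mer TEVs (canonical ENLYFQ|S). The substrate sits between flexible linkers in a Bxb1-sfGFP-TEVs-SsrA fusion, so cleavage stabilises Bxb1 and speeds flipping of a recombination array, read by NGS. The value is the raw area under the fraction-flipped curve over 0-4 h after rhamnose induction (AUC4h), with ≥20 reads per time point. It is not background-subtracted; inactive controls average about 0.047.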
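Note: Bxb1 expression induced with 0.2% (w/v) L-rhamnose at OD600 near 0.5, cultures sampled hourly, flipped fraction per protease–substrate barcode pair counted by paired-end Illumina sequencing.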

Row | Variant | area with substrate ENLYFQA | area with substrate ENLYFQC | area with substrate ENLYFQG | area with substrate ENLYFQH | area with substrate ENLYFQI | area with substrate ENLYFQK | area with substrate ENLYFQL | area with substrate ENLYFQM | area with substrate ENLYFQR | area with substrate ENLYFQS | area with substrate ENLYFQT | area with substrate ENLYFQV | area with substrate ENLYFQW | area with substrate ENLYFQY | area with substrate ENLYFQD | area with substrate ENLYFQE | area with substrate ENLYFQN | area with substrate ENLYFQP | area with substrate ENLYFQQ | area with substrate ENLYFQF
1 | MGESLFKGPRDYNPISSSICHLTNESDGHTTSLYGIGFGPFIITNKHLFRRNNGTLVVQSLHGVFKVKDTTTLQQHLVDGRDMIIIRMPKDFPPFPQKLKFREPQREERICLVTTNFQTKSMSSMVSDTSCTFPSVDGIFWKHWIQTKDGQCGSPLVSTRDGFIVGIHSASNFTNTNNYFTSVPKNFMELLTNQEAQQWVSGWRLNADSVLWGGHKVFMVKPEEPFQPVKEATQL [G136V] | 0.0799 | 0.116 | 0.103 | 0.0822 | 0.0583 | 0.0439 | 0.0601 | 0.0644 | 0.0549 | 0.0988 | 0.0558 | 0.0574 | 0.0626 | 0.071 | – | – | – | – | – | –
2 | MGESLFKGPRDYNPISSSICHLTNESDGHTTSLYGIGFGPFIITNKHLFRRNNGTLVVQSLHGVFKVKDTTTLQQHLVDGRDMIIIRMPKDFPPFPQKLKFREPQGEERICLVTTNFQTKSMSSMVSDTSCTFPSGDGIFWKHWIQTKDGQCGSPLVSTRDGFIVGIHSASNFTNTNNYFTSVPKNFMELLTNQEAQQWVSGWRLNADSVLWGGHKVFMVKPEEPFQPVKEATQL [R106G] | 0.131 | 0.0966 | – | 0.0559 | 0.0587 | – | – | – | 0.0567 | 0.0881 | – | – | 0.066 | – | – | – | – | – | – | –
3 | MGESLFKGPRDYNPISSSICHLTNESDGHTTSLYGIGFGPFIITNKHLFRRNNGTLVVQSLHGVFKVKDTTTLQQHFVDGRDMIIIRMPKDFPPFPQKLKFREPQREERICLVTTNFQTKSMSSMVSDTSCTFPSGDGIFWKHWIQTKDGQCGSPLVSTRDGFIVGIHSASNFTNTNNYFTSVPKNFMELLTNQEAQQWVSGWRLNADSVLWGGHKVFMVKPEEPFQPVKEATQL [L77F] | 0.064 | 0.0658 | 0.0567 | 0.0519 | 0.0566 | 0.0628 | 0.0655 | 0.0585 | 0.0521 | 0.0694 | 0.0552 | 0.0719 | 0.0607 | 0.066 | 0.0582 | 0.0819 | 0.0643 | 0.056 | – | –
4 | MGESLFKGPRDYNPISSSICHLTNESDGHTTSLYGIGFGPFIITNKHLFRRNNGTLVVQSLHGVFKVKDTTTLQQHLVDGRDMIIIRMPKDFPPFPQWLKFREPQREERICLVTTNFQTKSMSSMVSDTSCTFPSGDGIFWKHWIQTKDGQCGSPLVSTRDGFIVGIHSASNFTNTNNYFTSVPKNFMELLTNQEAQQWVSGWRLNADSVLWGGHKVFMVKPEEPFQPVKEATQL [K98W] | 0.107 | 0.0912 | – | – | 0.0573 | 0.0552 | 0.0667 | – | 0.0582 | 0.104 | 0.0634 | 0.0724 | 0.0685 | 0.0627 | – | – | 0.108 | 0.0692 | – | –
5 | MGESLFKGPRDYNPISSSICHLTNESDGHTTSLYGIGFGPFIITNKHLFRRNNGTLVVQSLHGVFKVKDTTTLQQHLVDGRDMIIIRMPKDFPPFPQKLKFREPQREERICLVTTNFQTVSMSSMVSDTSCTFPSGDGIFWKHWIQTKDGQCGSPLVSTRDGFIVGIHSASNFTNTNNYFTSVPKNFMELLTNQEAQQWVSGWRLNADSVLWGGHKVFMVKPEEPFQPVKEATQL [K120V] | 0.0968 | – | 0.0911 | – | 0.0589 | 0.0679 | – | 0.0874 | 0.0438 | 0.0998 | 0.0731 | 0.0058 | – | – | – | – | 0.0882 | 0.0897 | 0.0593 | –
6 | MGESLFKGPRDYNPISGSICHLTNESDGHTTSLYGIGFGPFIITNKHLFRRNNGTLVVQSLHGVFKVKDTTTLQQHLVDGRDMIIIRMPKDFPPFPQKLKFREPQREERICLVTTNFQTKSMSSMVSDTSCTFPSGDGIFWKHWIQTKDGQCGSPLVSTRDGFIVGIHSASNFTNTNNYFTSVPKNFMELLTNQEAQQWVSGWRLNADSVLWGGHKVFMVKPEEPFQPVKEATQL [S17G] | 0.0657 | 0.123 | – | 0.0912 | 0.059 | 0.0588 | 0.0612 | 0.114 | 0.059 | 0.108 | 0.0712 | 0.0525 | 0.0568 | 0.0621 | 0.0772 | 0.0598 | 0.0773 | 0.0543 | – | 0.0714
7 | MGESLFKGPRDYNPISSNICHLTNESDGHTTSLYGIGFGPFIITNKHLFRRNNGTLVVQSLHGVFKVKDTTTLQQHLVDGRDMIIIRMPKDFPPFPQKLKFREPQREERICLVTTNFQTKSMSSMVSDTSCTFPSGDGIFWKHWIQTKDGQCGSPLVSTRDGFIVGIHSASNFTNTNNYFTSVPKNFMELLTNQEAQQWVSGWRLNADSVLWGGHKVFMVKPEEPFQPVKEATQL [S18N] | 0.0839 | 0.0896 | 0.109 | – | 0.065 | 0.0583 | 0.063 | 0.108 | 0.0568 | 0.0965 | 0.0626 | – | 0.0709 | – | – | – | 0.0618 | – | – | –
8 | MGESLFKGPRDYNPISSSICHLTNESDGHTTSLYGIGFGPFIITNKHLFRRNNGVLVVQSLHGVFKVKDTTTLQQHLVDGRDMIIIRMPKDFPPFPQKLKFREPQREERICLVTTNFQTKSMSSMVSDTSCTFPSGDGIFWKHWIQTKDGQCGSPLVSTRDGFIVGIHSASNFTNTNNYFTSVPKNFMELLTNQEAQQWVSGWRLNADSVLWGGHKVFMVKPEEPFQPVKEATQL [T55V] | 0.14 | 0.0846 | 0.087 | 0.086 | 0.0584 | 0.0492 | 0.0594 | 0.0865 | 0.0594 | 0.103 | 0.0647 | 0.0631 | 0.0577 | 0.0891 | 0.0768 | – | 0.0648 | – | 0.074 | 0.067
9 | MGESLFKGPRDYNPISSSICHLTNESDGHTTSLYGIGFGPFIITNKHLFRRNNGQLVVQSLHGVFKVKDTTTLQQHLVDGRDMIIIRMPKDFPPFPQKLKFREPQREERICLVTTNFQTKSMSSMVSDTSCTFPSGDGIFWKHWIQTKDGQCGSPLVSTRDGFIVGIHSASNFTNTNNYFTSVPKNFMELLTNQEAQQWVSGWRLNADSVLWGGHKVFMVKPEEPFQPVKEATQL [T55Q] | 0.0773 | 0.145 | 0.119 | 0.0839 | 0.0637 | 0.0716 | 0.0511 | 0.119 | 0.0654 | 0.104 | – | – | 0.0635 | 0.0769 | – | – | – | 0.0445 | 0.0659 | –

From the supplement of paper PMC12217912
